According to PMC6377148:
Where a chain is given by its changes, count along the chain named. Results are given in words; binding and its absence hold for the method and conditions named. In cells and extracts the contact can be indirect. Some results given as binding are weak or reduced against the parent protein; the word gives no strength. For part of these data: Tags and fused reporters may be left off the sequences shown.

Protein sequences, listed by entry. Tags and fused reporters are not part of them.
UniProt P49336: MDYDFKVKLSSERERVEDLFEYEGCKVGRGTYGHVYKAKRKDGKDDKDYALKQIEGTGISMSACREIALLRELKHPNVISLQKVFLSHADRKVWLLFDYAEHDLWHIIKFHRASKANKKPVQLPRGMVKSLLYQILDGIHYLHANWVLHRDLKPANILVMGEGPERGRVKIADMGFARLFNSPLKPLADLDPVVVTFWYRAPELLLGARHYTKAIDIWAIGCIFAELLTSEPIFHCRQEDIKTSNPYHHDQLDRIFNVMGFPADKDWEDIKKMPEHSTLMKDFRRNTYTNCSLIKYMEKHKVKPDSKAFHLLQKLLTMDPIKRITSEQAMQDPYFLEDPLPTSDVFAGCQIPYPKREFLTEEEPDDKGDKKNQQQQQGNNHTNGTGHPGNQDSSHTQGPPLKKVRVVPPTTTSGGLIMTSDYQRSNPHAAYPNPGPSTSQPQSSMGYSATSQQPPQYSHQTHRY
UniProt Q7Z2Z1: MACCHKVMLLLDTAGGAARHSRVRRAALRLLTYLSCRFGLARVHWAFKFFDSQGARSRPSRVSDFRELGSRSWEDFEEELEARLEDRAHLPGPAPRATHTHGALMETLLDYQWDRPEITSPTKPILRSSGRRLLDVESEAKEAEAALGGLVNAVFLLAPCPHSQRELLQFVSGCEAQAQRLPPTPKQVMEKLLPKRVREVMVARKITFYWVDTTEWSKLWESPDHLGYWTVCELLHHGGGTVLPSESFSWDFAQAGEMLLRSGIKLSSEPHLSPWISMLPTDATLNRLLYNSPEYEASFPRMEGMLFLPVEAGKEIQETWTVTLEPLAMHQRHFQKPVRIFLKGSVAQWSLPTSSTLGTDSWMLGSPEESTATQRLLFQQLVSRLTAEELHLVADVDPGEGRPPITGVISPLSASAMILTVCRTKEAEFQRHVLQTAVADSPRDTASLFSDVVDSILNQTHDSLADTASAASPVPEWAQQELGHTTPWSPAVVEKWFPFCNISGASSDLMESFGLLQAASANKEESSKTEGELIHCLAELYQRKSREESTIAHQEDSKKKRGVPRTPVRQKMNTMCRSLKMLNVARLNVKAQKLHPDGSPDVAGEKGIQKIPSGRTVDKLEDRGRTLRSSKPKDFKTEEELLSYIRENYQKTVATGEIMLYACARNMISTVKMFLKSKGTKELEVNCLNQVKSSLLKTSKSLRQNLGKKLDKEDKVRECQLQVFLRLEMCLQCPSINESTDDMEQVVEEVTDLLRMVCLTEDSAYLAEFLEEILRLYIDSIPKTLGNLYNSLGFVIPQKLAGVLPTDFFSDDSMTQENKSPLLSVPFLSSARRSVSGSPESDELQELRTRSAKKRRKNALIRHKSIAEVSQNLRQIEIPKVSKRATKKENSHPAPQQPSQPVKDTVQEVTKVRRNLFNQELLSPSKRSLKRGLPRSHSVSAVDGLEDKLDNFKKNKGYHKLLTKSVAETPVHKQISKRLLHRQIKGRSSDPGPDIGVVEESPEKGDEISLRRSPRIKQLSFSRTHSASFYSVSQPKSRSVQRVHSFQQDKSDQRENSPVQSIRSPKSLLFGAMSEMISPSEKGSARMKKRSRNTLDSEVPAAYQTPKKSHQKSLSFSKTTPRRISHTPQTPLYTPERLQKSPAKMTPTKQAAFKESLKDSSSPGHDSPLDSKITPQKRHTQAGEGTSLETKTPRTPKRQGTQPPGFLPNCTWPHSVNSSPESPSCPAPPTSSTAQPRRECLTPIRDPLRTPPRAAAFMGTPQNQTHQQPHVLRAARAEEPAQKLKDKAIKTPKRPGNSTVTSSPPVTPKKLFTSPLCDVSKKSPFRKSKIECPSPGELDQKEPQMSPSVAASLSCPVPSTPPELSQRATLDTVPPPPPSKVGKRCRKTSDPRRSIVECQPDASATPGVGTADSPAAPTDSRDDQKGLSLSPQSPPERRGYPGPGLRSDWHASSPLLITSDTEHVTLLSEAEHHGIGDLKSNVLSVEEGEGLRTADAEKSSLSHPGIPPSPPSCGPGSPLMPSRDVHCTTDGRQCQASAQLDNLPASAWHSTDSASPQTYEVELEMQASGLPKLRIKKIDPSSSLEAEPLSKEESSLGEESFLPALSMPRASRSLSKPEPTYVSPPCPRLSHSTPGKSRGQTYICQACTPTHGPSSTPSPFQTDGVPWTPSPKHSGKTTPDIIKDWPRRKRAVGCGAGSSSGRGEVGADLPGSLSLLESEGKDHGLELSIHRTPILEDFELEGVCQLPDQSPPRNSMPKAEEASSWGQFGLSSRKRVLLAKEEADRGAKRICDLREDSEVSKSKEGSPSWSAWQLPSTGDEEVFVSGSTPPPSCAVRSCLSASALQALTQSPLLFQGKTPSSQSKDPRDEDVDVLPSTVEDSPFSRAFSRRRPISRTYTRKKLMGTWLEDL

How the values were obtained:
[1] = target: T1, MTBP-ΔD2-V8 (293T) (human) (UniProt Q96DY7); assay: co-IP; 293T transiently transfected, Fig 2B lanes 1–5: lanes 1–3 C-terminally Flag-GFP-tagged MTBP on anti-GFP nanobodies, the other lanes 3×Flag-tagged MTBP on anti-Flag; which lane holds which N-terminal deletion is not told; endogenous Treslin/TICRR and Cdk8 by immunoblot
T1 sequence: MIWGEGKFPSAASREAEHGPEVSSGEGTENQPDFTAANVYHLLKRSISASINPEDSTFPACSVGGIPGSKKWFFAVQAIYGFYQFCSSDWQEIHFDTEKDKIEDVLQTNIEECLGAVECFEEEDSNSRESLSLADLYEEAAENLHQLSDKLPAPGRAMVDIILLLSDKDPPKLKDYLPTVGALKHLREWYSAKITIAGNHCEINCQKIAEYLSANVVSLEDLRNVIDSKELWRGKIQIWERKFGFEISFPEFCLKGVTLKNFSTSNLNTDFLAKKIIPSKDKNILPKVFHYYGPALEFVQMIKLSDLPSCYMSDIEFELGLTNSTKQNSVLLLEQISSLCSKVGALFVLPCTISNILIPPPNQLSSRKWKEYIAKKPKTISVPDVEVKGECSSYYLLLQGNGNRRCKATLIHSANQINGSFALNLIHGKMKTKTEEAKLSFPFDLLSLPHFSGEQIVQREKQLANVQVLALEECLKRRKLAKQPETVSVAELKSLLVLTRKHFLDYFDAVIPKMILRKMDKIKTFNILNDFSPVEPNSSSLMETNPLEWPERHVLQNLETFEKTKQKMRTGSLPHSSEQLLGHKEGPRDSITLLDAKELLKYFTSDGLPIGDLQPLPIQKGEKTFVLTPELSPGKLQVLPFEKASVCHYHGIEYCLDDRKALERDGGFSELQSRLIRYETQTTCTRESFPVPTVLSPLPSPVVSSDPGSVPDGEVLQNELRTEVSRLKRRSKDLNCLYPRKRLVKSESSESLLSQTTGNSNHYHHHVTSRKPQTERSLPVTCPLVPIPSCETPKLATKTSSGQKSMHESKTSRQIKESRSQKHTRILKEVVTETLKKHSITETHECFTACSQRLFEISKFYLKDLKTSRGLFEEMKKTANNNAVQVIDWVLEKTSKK

[2] = target: T2, MTBP-m1–6, C-terminally 3×Flag-tagged (293T) (human) (UniProt Q96DY7); assay: co-IP; 293T transiently transfected with C-terminally 3×Flag-tagged MTBP; anti-FLAG antibody on Protein G Dynabeads, lysis buffer 20 mM HEPES, 150 mM NaCl, 10% glycerol, 0.1% Triton X-100, 1 h at 4°C; endogenous Treslin/TICRR and Cdk8 by immunoblot
T2 sequence: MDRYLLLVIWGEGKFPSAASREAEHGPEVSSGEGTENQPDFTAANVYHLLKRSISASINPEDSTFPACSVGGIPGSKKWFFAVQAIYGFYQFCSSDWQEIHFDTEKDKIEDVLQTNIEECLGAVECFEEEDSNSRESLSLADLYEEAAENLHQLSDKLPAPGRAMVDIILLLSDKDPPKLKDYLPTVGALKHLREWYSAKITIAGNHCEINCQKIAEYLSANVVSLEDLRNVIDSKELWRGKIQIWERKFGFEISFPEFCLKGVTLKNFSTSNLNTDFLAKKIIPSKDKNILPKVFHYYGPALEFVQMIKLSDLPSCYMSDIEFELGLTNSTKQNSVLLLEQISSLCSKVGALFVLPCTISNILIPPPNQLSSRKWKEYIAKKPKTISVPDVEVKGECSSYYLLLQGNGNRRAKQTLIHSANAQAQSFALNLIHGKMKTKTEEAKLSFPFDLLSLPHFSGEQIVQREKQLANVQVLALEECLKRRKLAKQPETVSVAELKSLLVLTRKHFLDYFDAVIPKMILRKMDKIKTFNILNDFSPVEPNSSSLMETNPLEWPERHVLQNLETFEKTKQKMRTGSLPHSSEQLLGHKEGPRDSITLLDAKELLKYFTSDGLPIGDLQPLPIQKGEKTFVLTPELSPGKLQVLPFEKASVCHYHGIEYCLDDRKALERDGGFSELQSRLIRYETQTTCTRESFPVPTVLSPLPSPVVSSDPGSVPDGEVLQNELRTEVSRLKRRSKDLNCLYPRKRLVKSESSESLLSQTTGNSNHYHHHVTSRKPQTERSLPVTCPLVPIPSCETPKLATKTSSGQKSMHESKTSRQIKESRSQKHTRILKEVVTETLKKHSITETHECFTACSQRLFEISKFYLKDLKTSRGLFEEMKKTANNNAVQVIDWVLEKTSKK

[3] = target: T3, MTBP-m2 (A415Q), C-terminally 3×Flag-tagged (293T) (human) (UniProt Q96DY7); assay: as above
T3 sequence: T2 sequence with A413C, A423Q, Q424I, A425N, Q426G

| Substance | binding [1] | binding [2] | binding [3] |
| --- | --- | --- | --- |
| Cdk8 (cyclin-dependent kinase 8), endogenous (from UniProt P49336 1-464) (enzyme) | binds | binds | binds |
| Treslin/TICRR (TopBP1-interacting replication stimulating protein/TopBP1-interacting checkpoint and replication regulator), endogenous (from UniProt Q7Z2Z1 1-1910) | no binding | no binding | no binding |
